Assay results taken from PubChem BioAssay AID445 (National Center for Advancing Translational Sciences (NCATS), 2006).
Screen size: about 110,000 compounds; about 40 (0.04%) were called active. This list was built around the results that the source calls inconclusive (neither active nor inactive); the mix of calls is not that of the screen. The call rests on the fitted dose curve; in most records, active means well fitted curve in the direction sought with a large enough effect in the signal ratio (not every such curve was filed as active); inconclusive means small, poorly fitted or top-dose-only effect, or a change in a side signal; inactive means flat fitted curve, though single readings scatter; the % refers to the signal ratio. Potencies beside an inconclusive call are fits to weak or partial responses and may not hold up.

Assay: IkB Signaling;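 on IkBa stabilization activation: 0% = basal untreated cells and 100% = reference inhibitor full response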
Settings: ABC-DLBCL IkBa-CBG/CBR dual luciferase ratio (green luciferase fused to IkBa over red control in OCI-Ly3 lymphoma cells), 4 h; IkBa stabilization activation: at 57.1 µM (top of the series), scaled: untreated 0%, proteasome inhibitor 100% unless noted
Outline: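 Luminescence ratio of IκBα-fused green versus native red beetle luciferase in OCI-Ly3 cells, 4 h post-doxycycline with compound; red signal alone, scaled from basal (0%) to zero light (-100%), flagged nonspecific or cytotoxic effects.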
Potency means the concentration at half of the fitted maximal effect.

SMILES	IkBa stabilization activation	Potency
O=C(Nc1cc(Cl)cc(Cl)c1)c1ccc(F)c(S(=O)(=O)N2CCc3ccccc32)c1	inactive	
CSc1nnc2c(n1)OC(c1cccn1C)N(C(C)=O)c1ccccc1-2 (stereo not drawn)	inactive	
CCc1ccccc1N(CC)C(=O)c1c(C)oc2ncnc(N3CCOCC3)c12	inconclusive: -0.5% [signal inhibitor]	
COc1cccc(C(=O)NC2=NCCS2)c1OC	inactive	
Cc1ccccc1C(=O)Nc1ccc(OCc2cc(=O)n3cccc(C)c3n2)cc1	inactive	
COc1ccc(NC(=O)Nc2nnc(C)s2)cc1	inactive	
COc1ccc(NC(=O)CSc2nnc(-c3ccccc3Cl)n2Cc2ccco2)c(OC)c1	inconclusive: 2.25% [signal inhibitor]	
CC(Sc1nc(=O)cc(N)n1CCc1ccccc1)C(=O)Nc1ccc(Cl)cc1 (stereo not drawn)	inconclusive: 0.576% [signal inhibitor]	
CCN(C(=O)C1CCC(CNS(=O)(=O)c2cccc3nsnc23)CC1)c1ccc(C)c(C)c1 (stereo not drawn)	inconclusive: -3.18% [signal inhibitor]	
CCOCCCNC(=O)c1cn(C)c(=O)c2cc(OC)c(OC)cc12	inactive	
[O-][N+]1(CC[N+]2([O-])CCCCC2)CCCCC1	inactive: 0.193% [at 11.4 µM, scaled: untreated 0%, proteasome inhibitor 100%]	
CCOc1ccc(-c2nnc3sc(COc4ccc(C)cc4)nn23)cc1	inactive	
CS(=O)(=O)Nc1cccc(-c2ccc3ncnc(Nc4ccccc4)c3c2)c1	inactive: -2.83% [at 11.4 µM, scaled: untreated 0%, proteasome inhibitor 100%]	
CC(C)OCCCNC(=O)c1ccc2c(c1)NC(=O)c1ccccc1S2	inconclusive: -0.483% [signal inhibitor]	
CCn1c(=O)sc2cc(NS(=O)(=O)c3ccc(F)c(C)c3)ccc21	inconclusive: 7.79% [signal inhibitor]	
Cc1ccc(CSc2cn(CC(=O)N3CCCC3)c3ccccc23)cc1	inconclusive: 0.0414% [signal inhibitor]	
CN(C(=O)c1cc2nc(-c3ccco3)cc(C(F)(F)F)n2n1)c1ccc(OC(F)(F)Cl)cc1	inactive	
O=C(CCS(=O)(=O)c1cc(Br)cc2c1N(C(=O)C1CC1)CC2)NCc1ccc(Cl)cc1	inconclusive: 0.177% [signal inhibitor]	
COc1ccc(C2c3c(n(C)c4ccccc34)C(=O)N2CC(=O)Nc2ccc(C)c(Cl)c2)cc1 (stereo not drawn)	inconclusive: 2.83% [signal inhibitor]	
COc1ccc(CCN2CCC(Nc3nc4ccccc4n3Cc3ccc(F)cc3)CC2)cc1	inactive	
Cc1ccc(NC(=O)Cn2cc(S(=O)(=O)c3ccc(C)cc3)c(=O)c3cc4c(cc32)OCO4)cc1	inconclusive: 2.52% [signal inhibitor]	
CC(=O)Nc1cc(OC(C)=O)c2nonc2c1OC(C)=O		inconclusive: 5.01 µM [signal inhibitor, single point]
CCc1ccc(C(=O)c2cn(CC(=O)Nc3cccc(OC)c3)c3ccc(OC)cc3c2=O)cc1	inconclusive: 0.865% [signal inhibitor]	

SMILES	IkBa stabilization activation	Potency
COc1ccccc1N1CCN(c2ncnc3c2cnn3-c2cc(Cl)ccc2C)CC1	inconclusive: -5.49% [signal inhibitor]	
O=C(c1cc2ccccc2oc1=O)N1CCN(c2ccc(Cl)cc2)CC1	inconclusive: 11% [signal inhibitor]	
CCOC(=O)c1c(COc2ccccc2)oc2ccc(O)cc12	inconclusive: 1.76% [signal inhibitor]	
Cc1ccc(C(=O)N2c3ccc(C)cc3C(C)(c3ccccc3)CC2(C)C)cc1 (stereo not drawn)	inconclusive: 10.2% [signal inhibitor]	
CCc1cccc(NC(=O)CN2C(=O)COc3ccc(S(=O)(=O)Nc4ccccc4)cc32)c1	inactive	
Cc1nnc(SCc2cnc(-c3ccc(C(C)C)cc3)s2)n1C	inactive	
CCOC(=O)c1ccc(N2C(=O)c3[nH]nc(-c4ccc(C)cc4)c3C2c2cccc(F)c2)cc1 (stereo not drawn)	inconclusive: 0.118% [signal inhibitor]	
COc1ccc(OCc2ccc(-c3nc4ccccc4c(=O)n3N)o2)cc1	inconclusive: 1.01% [signal inhibitor]	
CC(NC(=O)c1ccc2c(c1)CCN2S(C)(=O)=O)c1ccccc1 (stereo not drawn)	inactive	
Cc1c(Cl)cccc1NC(=O)c1cccc(NC(=O)N2CCSc3ncccc32)c1	inconclusive: -0.676% [signal inhibitor]	
COc1ccc(C(=O)N2CCC[C@@]3(CCN(c4ccccc4)C3)C2)cc1	inactive: 0.23% [at 11.4 µM, scaled: untreated 0%, proteasome inhibitor 100%]	
Cc1ccc(CNC(=O)c2ccc3c(c2)nc(C)n3-c2cccc(F)c2)cc1	inconclusive: 1.06% [signal inhibitor]	
CCOc1ccc(NC(=O)CSC2=Nc3ccccc3C3=NC(CCC(=O)NCc4ccccc4)C(=O)N23)cc1 (stereo not drawn)	inconclusive: 15.4% [signal activator]	
COc1ccc2ccccc2c1CN1CCN(C(=O)c2ccccc2)CC1	inconclusive: 1.73% [signal inhibitor]	
Cc1ccc2c(CC(=O)Nc3sccc3C(N)=O)coc2c1	inconclusive: 8.03% [signal inhibitor]	
CCCCOc1ccc(-c2nn(-c3ccccc3)cc2C2NC(=O)NC(C)=C2C(=O)OCC)cc1 (stereo not drawn)	inconclusive: 15.3% [signal inhibitor]	
c1ccc(SCc2nc(-c3ccccn3)no2)cc1		inconclusive: 25.1 µM [signal inhibitor, partial curve]
CCc1ccc(Sc2cc(C(=O)NCc3ccccc3OC)c3ccccc3n2)cc1	inconclusive: -1.76% [signal inhibitor]	
O=C(c1cc2ccccc2oc1=O)N1CCN(c2ccc(N3CCOCC3)nn2)CC1	inactive	
CCn1c(=O)cc(SCC(=O)NCc2ccc(F)cc2Cl)c2ccccc21	inconclusive: 1.08% [signal inhibitor]	
COc1cc(N[C@@H](C)CCCN)c2ncccc2c1	inconclusive: 9.63% [signal inhibitor] [at 25.6 µM, scaled: untreated 0%, proteasome inhibitor 100%]	
CCc1ccc(Sc2cc(C(=O)NCc3cccc(OC)c3)c3ccccc3n2)cc1	inconclusive: 3.45% [signal inhibitor]	
CC[C@](C)(CN(C)C)OC(=O)c1ccccc1	inactive	

SMILES	IkBa stabilization activation	Potency
O=c1c(-c2cccs2)nc2cnc(Oc3ccccc3)nc2n1C1CC1	inactive: -1.27% [at 11.4 µM, scaled: untreated 0%, proteasome inhibitor 100%]	
CCOC(=O)c1ccc(NS(=O)(=O)c2cnc[nH]2)cc1	inactive	
Cc1ccc(OCc2nc(-c3ccc(C(=O)N4CCN(c5ccccc5F)CC4)cc3)oc2C)cc1	inconclusive: -1.56% [signal inhibitor]	
O=C1OC(C(=O)Nc2cccc(Br)c2)Cc2ccccc21 (stereo not drawn)	inactive	
Cc1ccc(NC(=O)c2ccc(-c3cccc(Cl)c3C)o2)cc1	inconclusive: 14.8% [signal inhibitor]	
COc1ccc(OC)c(CNC(=O)c2cc3c(-c4ccc(OC)c(OC)c4)nn(C)c3s2)c1	inconclusive: -2.77% [signal inhibitor]	
CN(C)S(=O)(=O)N(CC(=O)NCCSCc1ccccc1)c1ccccc1	inconclusive: 3.24% [signal inhibitor]	
Cc1cccc(N2C(=O)N(CC(=O)C(C)(C)C)c3ccccc3S2(=O)=O)c1C	inactive	
CN(Cc1ccco1)c1ccnc(-c2cccc(NS(C)(=O)=O)c2)n1	inactive: 0.805% [at 11.4 µM, scaled: untreated 0%, proteasome inhibitor 100%]	
COc1ccc(Cl)cc1NC(=O)c1cc(S(=O)(=O)NC2CCCCCC2)ccc1F	inconclusive: -1.55% [signal inhibitor]	
C=CCn1c(SCc2cc(=O)n3ccsc3n2)nc2sc(C)c(C)c2c1=O	inactive	
Cc1ccc(C)c(NC(=O)CN2CCCN(Cc3cccc(Cl)c3)S2(=O)=O)c1	inconclusive: -0.708% [signal inhibitor]	
COc1cccc(NC(=O)/C=C\c2ccc(Cl)cc2)c1	inconclusive: 0.916% [signal inhibitor]	
CCC1(C)CC(=O)c2c(ccc3oc(C(=O)NCc4ccccc4)c(C)c23)O1 (stereo not drawn)	inconclusive: -0.52% [signal inhibitor]	
CN(C)c1ccc(/C=N\NC(=O)c2cnc3ccccc3c2)cc1	inactive: 0.9% [at 11.4 µM, scaled: untreated 0%, proteasome inhibitor 100%]	
COc1cccc(-c2cc(C(=O)Nc3c(C)nn(Cc4ccccc4Cl)c3C)no2)c1	inconclusive: 7.06% [signal inhibitor]	
Cc1cc2nnc(SCc3ccc(F)cc3)n2c2ccccc12	inconclusive: 2.3% [signal inhibitor]	
CC(C)CCn1c(=O)c2cccnc2n(CC(=O)Nc2ccc(F)cc2)c1=O		inconclusive: 39.8 µM [signal inhibitor]
Cc1ccccc1CS(=O)(=O)Cc1ccc(C(=O)NCCCN2CCOCC2)o1	inactive	
Cc1occc1-c1nnc(SCC(=O)Nc2ccccc2)n1CCc1ccccc1	inconclusive: 0.723% [signal inhibitor]	
CN1CCN(C2(CNC(=O)c3ccc(C(C)(C)C)cc3)CCCCC2)CC1	inconclusive: 2.56% [signal inhibitor]	
Cc1cc(C)c(S(=O)(=O)Nc2ccc(-c3ccc(N4CCC(C)CC4)nn3)cc2)cc1C	inactive	
